Results taken from PubChem BioAssay AID1347165 (National Center for Advancing Translational Sciences (NCATS), 2019).
Screen size: about 220,000 compounds; about 5,700 (2.6%) were called active. This list was built around the results that the source calls inconclusive (neither active nor inactive); the mix of calls is not that of the screen. Calls follow the shape of the dose curve; as a rule, active = well fitted inhibition curve with a large enough effect; inconclusive = small, poorly fitted or top-dose-only effect; inactive = no such curve, though single readings can be large or run the other way. Potencies of inconclusive entries are doubtful fits and often do not repeat.
Also: nearly all actives have a fitted effect of over 70% in size.
For activity change, negative = inhibition in this document: 0% is about no effect.
Potency is read from the fitted curve at half-maximal effect; tags tell the direction and shape of the fitted curve.

Each compound was assayed against Lysine-specific demethylase 5B (Homo sapiens) (UniProt Q9UGL1) (assay: Primary screen for KDM5B Histone Demethylases FDH-coupled qHTS). Conditions: FDH-coupled NADH fluorescence (FDH is formaldehyde dehydrogenase); activity change, negative = inhibition: at 57.7 µM (top of the series) unless noted.
Chain of UniProt Q9UGL1 (Q9UGL1 whole entry, looked up): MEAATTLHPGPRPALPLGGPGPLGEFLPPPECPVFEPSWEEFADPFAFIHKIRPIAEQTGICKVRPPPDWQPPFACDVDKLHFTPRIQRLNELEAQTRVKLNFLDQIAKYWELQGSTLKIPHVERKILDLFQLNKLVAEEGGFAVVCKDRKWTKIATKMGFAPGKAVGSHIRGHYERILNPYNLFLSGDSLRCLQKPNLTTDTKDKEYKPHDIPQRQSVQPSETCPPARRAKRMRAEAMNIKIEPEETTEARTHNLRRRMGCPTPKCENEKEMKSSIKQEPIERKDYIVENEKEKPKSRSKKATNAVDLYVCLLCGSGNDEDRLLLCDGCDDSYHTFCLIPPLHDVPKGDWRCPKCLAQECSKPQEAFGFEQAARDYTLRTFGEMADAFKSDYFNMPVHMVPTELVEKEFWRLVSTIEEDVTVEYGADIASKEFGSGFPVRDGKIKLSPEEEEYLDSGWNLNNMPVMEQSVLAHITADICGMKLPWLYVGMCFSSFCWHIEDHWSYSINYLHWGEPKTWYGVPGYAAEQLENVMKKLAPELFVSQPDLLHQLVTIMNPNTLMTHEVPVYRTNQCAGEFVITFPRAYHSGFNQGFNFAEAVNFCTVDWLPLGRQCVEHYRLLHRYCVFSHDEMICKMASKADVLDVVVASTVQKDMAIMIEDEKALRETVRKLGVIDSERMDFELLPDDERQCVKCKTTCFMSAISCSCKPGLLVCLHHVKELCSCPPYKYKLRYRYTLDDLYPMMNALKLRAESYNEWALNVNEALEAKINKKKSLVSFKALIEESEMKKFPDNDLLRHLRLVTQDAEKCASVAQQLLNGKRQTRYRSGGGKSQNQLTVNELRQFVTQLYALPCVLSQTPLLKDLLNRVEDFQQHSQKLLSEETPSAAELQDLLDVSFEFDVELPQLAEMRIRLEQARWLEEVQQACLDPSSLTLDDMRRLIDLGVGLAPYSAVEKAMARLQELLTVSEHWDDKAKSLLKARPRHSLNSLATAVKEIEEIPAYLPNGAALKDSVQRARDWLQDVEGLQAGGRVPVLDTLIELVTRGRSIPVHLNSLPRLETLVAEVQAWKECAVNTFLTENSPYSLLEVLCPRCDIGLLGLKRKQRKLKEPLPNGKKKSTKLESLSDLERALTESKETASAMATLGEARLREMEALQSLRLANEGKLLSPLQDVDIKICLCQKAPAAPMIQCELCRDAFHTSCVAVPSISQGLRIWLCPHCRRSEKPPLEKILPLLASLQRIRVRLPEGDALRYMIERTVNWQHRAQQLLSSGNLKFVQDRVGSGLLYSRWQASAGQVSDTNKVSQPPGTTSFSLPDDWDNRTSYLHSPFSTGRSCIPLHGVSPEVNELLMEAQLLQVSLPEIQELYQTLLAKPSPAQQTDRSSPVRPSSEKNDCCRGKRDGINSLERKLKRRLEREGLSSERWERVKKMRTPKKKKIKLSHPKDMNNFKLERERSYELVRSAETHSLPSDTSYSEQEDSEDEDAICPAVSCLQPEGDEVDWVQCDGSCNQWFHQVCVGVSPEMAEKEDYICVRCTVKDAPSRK
Procedure, shortened: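 qHTS format, multiple compound concentrations. Buffer 50 mM HEPES pH 7.5/0.01% Tween-20; 200 nM KDM5BΔAP final; 10 min compound preincubation; substrate-mix levels 12.5 µM peptide, 25 µM α-KG, 0.25 mM NAD⁺; 30 min RT; ΔRFU.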
`CC1C=CC(C)N1c1ncnc2c1CN(C1CCNCC1)C(=O)CN2C` (stereo unspecified) was tested, and the Potency was inconclusive: 56.2 µM [inhibitor, partial curve, poor fit]. For `O=C(Cc1cccc(Cl)c1)N1CCC2(CC1)COc1ccccc1[S+](=O)([O-])N2`, the Potency was inconclusive: 89.1 µM [inhibitor, single point]. With `CNc1oc(-c2cc(S(=O)(=O)N(Cc3ccccc3)C(C)C)c(C)o2)nc1C#N` the Potency was inconclusive: 35.5 µM [inhibitor, partial curve, poor fit]. For `CC(=O)c1cccc(NC(=O)CSc2nc(-c3ccccc3C)nc3cc(=O)[nH]n23)c1`, the “activity change, negative = inhibition” value was inactive: 8.17%. With `Cc1ccc(Cl)cc1N1CCN(C(=O)CCn2ccn3nc4c(c3c2=O)CCCC4)CC1` the Potency was inconclusive: 15.8 µM [inhibitor, partial curve]. `CCCc1c(C(=O)OCC)nnc2c(-c3ccc(F)cc3)c(C)nn12` was tested, and the “activity change, negative = inhibition” value was inactive: 0.948%. In the case of `CN(Cc1ccc(-c2ccccc2)cc1)Cc1nccs1`, the “activity change, negative = inhibition” value is reported as inactive: 7.72% [at 86.2 µM]. `CCc1noc(-c2cccn3c(CNC(=O)c4ccc(F)c(F)c4)nnc23)n1` was tested, and the Potency was active: 3.98 µM. With `O=C(CCc1ccnc(N2CCOCC2)c1)NCc1cnccn1` the Potency was inconclusive: 20 µM [inhibitor, partial curve, poor fit]. In the case of `CCOP(=O)(OCC)c1nc(-c2ccco2)oc1NCc1ccc(F)cc1`, the Potency is reported as inconclusive: 22.4 µM [inhibitor, partial curve, poor fit]. With `Cc1ccc(CC(=O)N2CC(c3nnc(-c4ccc(C)cc4)o3)C3(CCOCC3)C2)cc1` (stereo unspecified) the “activity change, negative = inhibition” value was inactive: 6.18%. With `COc1nc2nc(CCc3ccccc3)n(C)c2cc1-c1cccc(NC(C)=O)c1` the Potency was active: 35.5 µM. `CCc1ccc(CNC(=O)c2c3c(nc4ccccc24)C(=O)N(C2CCCCC2)C3)cc1` was tested, and the Potency was inconclusive: 35.5 µM [inhibitor, single point]. `O=C(CCc1ccco1)Nc1ccc(N2CCOCC2)cn1` was tested, and the Potency was inconclusive: 31.6 µM [inhibitor, single point]. For `CCOC(=O)c1ccc(N2C(=O)c3[nH]nc(-c4ccc(C)cc4)c3C2c2ccc(O)c(OCC)c2)cc1` (stereo unspecified), the activity change, negative = inhibition was inconclusive: -33.8% [inhibitor]. `Cc1cccc(OCCSc2nc3ccccc3n2CC(=O)N2CCOCC2)c1` was tested, and the Potency was inconclusive: 28.2 µM [inhibitor, single point]. `O=C(COc1ccc(C(=O)c2ccccc2)cc1)OCCOc1cccc(Cl)c1` was tested, and the “activity change, negative = inhibition” value was inactive: 2.54%. `C=CCSc1nc2c(C(=O)OCC)nnn2c2ccccc12` was tested, and the Potency was inconclusive: 25.1 µM [inhibitor, single point]. For `Cc1nnnn1CC(=O)NCc1cccnc1N(C)CCc1ccccn1`, the “activity change, negative = inhibition” value was inactive: -3.48%. `COc1ccccc1N1CCCc2ncc(C(=O)Nc3ccc4[nH]ccc4c3)cc21` was tested, and the Potency was inconclusive: 35.5 µM [inhibitor, partial curve, poor fit]. For `CNC(=O)CSC12CC3CC(CC(C3)C1)C2`, the “activity change, negative = inhibition” value was inactive: -0.0357%. For `Cc1c(-c2cccs2)nc2ccccc2c1C(=O)O`, the Potency was inconclusive: 22.4 µM [inhibitor, single point]. With `O=c1c2c(-c3ccc(Cl)cc3)noc2ncn1Cc1ccc(F)cc1Cl` the “activity change, negative = inhibition” value was inactive: 12.5%. `O=S(=O)(Nc1cccc(-c2ccc(N3CCCC3)nn2)c1)c1cccc(C(F)(F)F)c1` was tested, and the “activity change, negative = inhibition” value was inactive: -9.68%. In the case of `O=C(c1ccc2cc[nH]c2c1)N1CCN(C(=O)c2nnn3c2COC(c2ccc(Cl)cc2)C3)CC1` (stereo unspecified), the Potency is reported as inconclusive: 39.8 µM [inhibitor, single point]. For `COc1ccc(C(=O)NCCn2cccc2-c2nc(-c3ccccc3)no2)cc1`, the Potency was inconclusive: 39.8 µM [inhibitor, single point]. `COc1ccc(C(=O)CSc2nc(C)cc(C)c2C(=O)Nc2ccccc2C)cc1` was tested, and the Potency was inconclusive: 17.8 µM [inhibitor, partial curve, poor fit]. With `COc1ccc(C)cc1NC(=O)CN1c2ccccc2S(=O)(=O)c2ccccc21` the Potency was inconclusive: 28.2 µM [inhibitor, partial curve, poor fit]. In the case of `O=C([C@@H]1C[C@H](Oc2ccccc2)CN1C(=O)c1cc2ccccc2[nH]1)N1CCCC1`, the Potency is reported as active: 25.1 µM. With `O=C(NC1CCCN(c2cc(-c3ccc(Cl)cc3)[nH]n2)C1)c1cccnc1` (stereo unspecified) the “activity change, negative = inhibition” value was inactive: 11.7%. For `Cc1nc(N2CCCC2)ncc1C(=O)NCc1cccc(Cl)c1`, the Potency was inconclusive: 28.2 µM [inhibitor, partial curve, poor fit]. With `CCCCCCCCCCCCSCC(=O)O` the “activity change, negative = inhibition” value was inactive: -26.1%. `CCOc1ccccc1CNC(=O)CCn1c(=O)c2cccn2c2ccc(F)cc21` was tested, and the Potency was inconclusive: 25.1 µM [inhibitor, single point]. `CCN(Cc1ccncc1)Cc1cn(-c2ccccc2)nn1` was tested, and the Potency was inconclusive: 17.8 µM [inhibitor, single point]. `CNC(=O)c1ccc(/C=C/C(=O)c2ccc(OCCC(C)C)cc2)cc1` was tested, and the “activity change, negative = inhibition” value was inactive: 0.616%. In the case of `Cc1ccc(Cn2c(CN3CCC(C(=O)NCc4ccccc4C)CC3)cc3ccccc32)cc1`, the Potency is reported as inconclusive: 17.8 µM [inhibitor, partial curve, poor fit]. `Cn1c(=O)c2c(ncn2CCOCCOc2ccccc2)n(C)c1=O` was tested, and the “activity change, negative = inhibition” value was inactive: 2.58%. With `Cc1c(C(=O)N2CCOC(CCCC(C)C)C2)cnc2cc(=O)[nH]n12` (stereo unspecified) the “activity change, negative = inhibition” value was inactive: -36.3%. With `CCOC(=O)C(C)N1C(=O)S/C(=C/c2cn(CC(=O)OC)c3ccccc23)C1=O` (stereo unspecified) the “activity change, negative = inhibition” value was inactive: -6.6%. For `N#Cc1ccc(C[B][B][B][B][B][B][B][B][B][B]Cc2ccc(C#N)cc2)cc1`, the “activity change, negative = inhibition” value was inactive: 14.7%. For `COc1cccc(CN2CCC3(CC2)COc2ccccc2C(=O)N3)c1`, the “activity change, negative = inhibition” value was inactive: -18.5% [at 86.2 µM]. For `COc1ccc(C(CNC(=O)c2nn(Cc3ccccc3)c(=O)c3ccccc23)N2CCCC2)cc1` (stereo unspecified), the “activity change, negative = inhibition” value was inactive: -1.26%. `CCOC(=O)c1cccc(NC(=O)CCCn2nc(C)c3c(C)n(-c4ccccc4)nc3c2=O)c1` was tested, and the “activity change, negative = inhibition” value was inactive: 7.99%. `CC(C)c1ccc(-c2nnn(Cc3cc(=O)n4ccsc4n3)n2)cc1` was tested, and the “activity change, negative = inhibition” value was inactive: -27.2%. In the case of `CCN(CC)[C@H]1[C@@H]2OC[C@@H](O2)[C@@H](NCC2CCCCC2)[C@@H]1O`, the “activity change, negative = inhibition” value is reported as inactive: -4.11% [at 86.2 µM]. For `CCOC(=O)c1c(C)n(-c2ccccc2)c2ccc(OC(=O)c3ccccc3NC(=O)C(C)C)cc12`, the Potency was inconclusive: 35.5 µM [inhibitor, partial curve, poor fit].
